Source: the supplement of paper PMC9446081
Out of some 39,000 compounds screened, about 220 (0.56%) showed activity. Some of the results follow.
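Note: static incubation at 37 °C against the wild-type strain, values averaged over two biological replicates.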

Each compound was assayed on Escherichia coli K-12 BW25113 (assay: relative growth (OD600 normalised to plate interquartile mean) (fraction); higher = less growth inhibition, active = 0.2 or less). Conditions: 50 µM; LB; incubation time: overnight (16-24 h).
For `Cc1ccc(S(=O)(=O)Nc2ccc3c(c2)C(=O)N([C@H](C)CO)C[C@H](C)[C@@H](CN(C)Cc2ccccc2)OCCCC[C@@H](C)O3)cc1`, the relative growth was inactive: 0.973. With `C[C@H]1CN([C@@H](C)CO)S(=O)(=O)c2ccc(C#Cc3ccccc3F)cc2O[C@@H]1CN(C)C(=O)Cc1cccnc1` the relative growth was inactive: 0.981. In the case of `Cc1ccc(OCCn2c(CC(C)(C)C)nc3ccccc32)cc1`, the relative growth is reported as inactive: 0.916. For `Cc1noc(C)c1S(=O)(=O)N(C)C[C@H]1Oc2ccc(NS(=O)(=O)c3ccccc3)cc2CC(=O)N([C@@H](C)CO)C[C@@H]1C`, the relative growth was inactive: 0.981. With `C[C@H]1CN([C@@H](C)CO)C(=O)c2cccc(NC(=O)c3cnccn3)c2O[C@@H]1CN(C)C(=O)Nc1ccccc1` the relative growth was inactive: 0.986. For `CO[C@H]1O[C@H](CO)[C@@H](OC(=O)Nc2ccccc2-c2ccccc2)[C@H](OC(=O)Nc2ccc3c(c2)OCO3)[C@H]1OC(=O)Nc1ccc2c(c1)OCO2`, the relative growth was inactive: 1.03. `C[C@@H]1CCCCO[C@@H](CN(C)C(=O)C2CCCCC2)[C@@H](C)CN([C@H](C)CO)C(=O)c2cc(NC(=O)Nc3ccc(C(F)(F)F)cc3)ccc2O1` was tested, and the relative growth was inactive: 1.04. For `CC(C)NC(=O)Nc1cccc2c1O[C@H](CN(C)S(=O)(=O)c1cccs1)[C@@H](C)CN([C@@H](C)CO)C2=O`, the relative growth was inactive: 1.01. `C[C@@H]1CN([C@H](C)CO)C(=O)c2cc(-c3ccncc3)cnc2O[C@@H]1CN(C)S(=O)(=O)c1ccc(F)cc1` was tested, and the relative growth was inactive: 1.01. With `C[C@H]1CN([C@@H](C)CO)S(=O)(=O)c2ccc(C#CC3(O)CCCC3)cc2O[C@@H]1CN(C)C(=O)Nc1ccc(F)cc1` the relative growth was inactive: 0.987. `CCCC[C@@H](C)/C=C(C)/C=C(\C)C(=O)NC1=C[C@@](O)(/C=C/C=C/C=C/C(=O)NC2C(=O)CCC2=O)[C@@H]2O[C@@H]2C1=O` was tested, and the relative growth was inactive: 0.814. For `C[C@@H]1CN([C@@H](C)CO)S(=O)(=O)c2ccc(-c3cncnc3)cc2O[C@H]1CN(C)C(=O)Cc1ccccc1`, the relative growth was inactive: 1. For `C[C@H](CO)N1C[C@H](C)[C@@H](CN(C)Cc2cccnc2)Oc2cc(C#CCN(C)C)ccc2S1(=O)=O`, the relative growth was inactive: 1.02. `C[C@H]1CN([C@@H](C)CO)C(=O)c2cc(NC(=O)Nc3cccc4ccccc34)ccc2O[C@@H]1CN(C)Cc1ccc(Oc2ccccc2)cc1` was tested, and the relative growth was inactive: 0.999. For `Cc1noc(C)c1NC(=O)Nc1ccc2c(c1)C(=O)N([C@H](C)CO)C[C@H](C)[C@@H](CN(C)C(=O)Nc1ccc(C(F)(F)F)cc1)OCCCC[C@H](C)O2`, the relative growth was inactive: 1. For `O=C(C[C@H]1CC[C@@H](NC(=O)CN2CCOCC2)[C@H](CO)O1)NCCc1ccncc1`, the relative growth was inactive: 0.928. With `C[C@@H]1CCCCO[C@@H](CN(C)C(=O)Nc2ccc3c(c2)OCO3)[C@@H](C)CN([C@H](C)CO)C(=O)c2cc(NC(=O)Nc3ccccc3)ccc2O1` the relative growth was inactive: 0.981. `Cc1noc(C)c1S(=O)(=O)Nc1ccc2c(c1)C(=O)N([C@@H](C)CO)C[C@@H](C)[C@@H](CN(C)C(=O)Nc1ccc3c(c1)OCO3)O2` was tested, and the relative growth was inactive: 0.981. For `CN(C)CCCNC(=O)C[C@@H]1C=C[C@H](NC(=O)Cc2cccnc2)[C@@H](CO)O1`, the relative growth was inactive: 0.95. For `COc1ccc([Si](C)(C)[C@@H]2[C@@H](CCn3cc([C@H](O)c4ccccc4)nn3)O[C@]3(C(=O)N(c4ccccc4)c4ccccc43)[C@H]2C)cc1`, the relative growth was inactive: 1.03. `C[C@@H]1CN([C@H](C)CO)C(=O)c2cc(NS(=O)(=O)c3ccc(Cl)cc3)ccc2O[C@@H](C)CCCCO[C@H]1CN(C)C(=O)Nc1ccc(F)cc1` was tested, and the relative growth was inactive: 1.01. In the case of `C[C@@H]1CN([C@H](C)CO)C(=O)c2cc(NC(=O)CCC(F)(F)F)ccc2O[C@@H](C)CCCCO[C@@H]1CN(C)C(=O)CCC(F)(F)F`, the relative growth is reported as inactive: 0.836. For `C[C@H](CO)N1C[C@H](C)[C@H](CN(C)Cc2ccc(-c3ccccc3)cc2)Oc2c(NC(=O)c3ccc(-c4nccs4)cc3)cccc2C1=O`, the relative growth was inactive: 0.994. With `C[C@@H]1CN([C@H](C)CO)S(=O)(=O)c2ccc(C#CCN(C)C)cc2O[C@H]1CN(C)C(=O)Nc1ccccc1F` the relative growth was inactive: 1.03. With `C[C@H](CO)N1C[C@H](C)[C@@H](CN(C)Cc2ccc(Cl)c(Cl)c2)Oc2ccc(NS(=O)(=O)c3ccc(F)cc3)cc2CC1=O` the relative growth was inactive: 0.997. In the case of `Cc1cncc2cccc(S(=O)(=O)N[C@H]3CN[C@H](COC(=O)NCCOCCOCCN)C3)c12`, the relative growth is reported as inactive: 1. `COc1ccc(NC(=O)N(C)C[C@H]2OCCCC[C@H](C)Oc3ccc(NC(=O)c4ccccc4)cc3C(=O)N([C@@H](C)CO)C[C@H]2C)cc1` was tested, and the relative growth was inactive: 0.99. `Cc1cc(-c2ccccc2)nc(-c2ccccc2)c1C` was tested, and the relative growth was inactive: 0.937. For `COc1ccc(C#Cc2ccc3c(c2)O[C@H](CN(C)C(C)=O)[C@@H](C)CN([C@@H](C)CO)S3(=O)=O)cc1`, the relative growth was inactive: 1.03. With `C[C@H]1CN([C@@H](C)CO)C(=O)c2cccc(NS(=O)(=O)c3cccs3)c2O[C@@H]1CN(C)Cc1ccc(Oc2ccccc2)cc1` the relative growth was inactive: 1. In the case of `CCCc1cc(-c2nc(-c3ccc(C)cc3)cs2)ccn1`, the relative growth is reported as inactive: 1.02. In the case of `CN1C(=O)c2cc(NS(=O)(=O)c3cccc(F)c3)ccc2OC[C@H]2O[C@@H](CC(=O)NCCN3CCCCC3)CC[C@@H]21`, the relative growth is reported as inactive: 0.977. For `C[C@@H]1CN([C@H](C)CO)S(=O)(=O)c2ccc(-c3cccnc3)cc2O[C@H]1CN(C)C(=O)NC1CCCC1`, the relative growth was inactive: 0.998. In the case of `Cc1noc(C)c1NC(=O)Nc1ccc2c(c1)C(=O)N([C@H](C)CO)C[C@@H](C)[C@H](CN(C)Cc1ccncc1)OCCCC[C@H](C)O2`, the relative growth is reported as inactive: 0.987. `C[C@@H]1CCCCO[C@@H](CN(C)CC2CCCCC2)[C@H](C)CN([C@@H](C)CO)C(=O)c2cc(N(C)C)ccc2O1` was tested, and the relative growth was inactive: 1.01. `CO[C@H]1CN(C)C(=O)c2ccc(NS(=O)(=O)c3cn(C)cn3)cc2OC[C@H](C)N(CCC(F)(F)F)C[C@H]1C` was tested, and the relative growth was inactive: 0.998. For `COc1ccc(NC(=O)N(C)C[C@@H]2Oc3ccc(NS(=O)(=O)c4c(C)noc4C)cc3C(=O)N([C@H](C)CO)C[C@H]2C)cc1`, the relative growth was inactive: 1.
